# Source: the supplement of paper PMC10441789
# Some of the results follow. Antibody binding of pooled human sera (four to six donors per pool; dilution not stated) to peptides of the Trypanosoma cruzi antigen TSSA on microarrays. Quantile-normalised fluorescence in arbitrary units, mean of duplicate arrays; higher = more binding. No active / inactive call. The uninfected pools are read here as the healthy donors of the same country. The strongest signals lie near the top of the scale (about 60,000).
# Assays:
# Test in all cases: antibody binding signal (normalised fluorescence) (arbitrary fluorescence units); higher = stronger serum antibody binding to peptide
# [1] = tested on: pooled sera of chronic Chagas disease patients, Argentina
# Procedure: (§1)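 Microarray of overlapping 15-residue peptides of the four Trypanosoma cruzi TSSA reference variants and 8- to 13-residue peptides of TSSAII 24-62, probed with one serum pool per country.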
# [2] = tested on: pooled sera of chronic Chagas disease patients, Bolivia
# Procedure: as §1
# [3] = tested on: pooled sera of chronic Chagas disease patients, Brazil
# Procedure: as §1
# [4] = tested on: pooled sera of chronic Chagas disease patients, Colombia
# Procedure: as §1
# [5] = tested on: pooled sera of chronic Chagas disease patients, Mexico
# Procedure: as §1
# [6] = tested on: pooled sera of chronic Chagas disease patients, USA
# Procedure: as §1
# [7] = tested on: pooled sera of uninfected people, Argentina
# Procedure: as §1
# [8] = tested on: pooled sera of uninfected people, Bolivia
# Procedure: as §1
# [9] = tested on: pooled sera of uninfected people, Colombia
# Procedure: as §1
# [10] = tested on: pooled sera of uninfected people, Mexico
# Procedure: as §1
# [11] = tested on: pooled sera of uninfected people, USA
# Procedure: as §1
Sequence,antibody binding signal [1],antibody binding signal [2],antibody binding signal [3],antibody binding signal [4],antibody binding signal [5],antibody binding signal [6],antibody binding signal [7],antibody binding signal [8],antibody binding signal [9],antibody binding signal [10],antibody binding signal [11]
TSSTPPSGTENK,51400,50900,51300,235,6740,29900,2490,402,654,453,440
SSTPPSGTENKPA,55800,52500,54400,334,13000,45400,10200,1680,837,753,1000
TPPSGTDKKTAAGEA,10100,16000,29300,3940,21600,1770,229,161,206,848,163
TANGGSTISTPPSGT,244,285,337,226,432,313,436,149,161,159,140
STSSTPPSGTENKPA,53200,53200,52200,767,9400,42800,8740,1440,915,788,990
GASSGEAEAS,95.9,121,1440,119,131,100,214,152,97.7,74.6,171
PPSGTENKPATGE,45000,43700,45900,869,4260,28500,7100,1430,466,525,686
GGSTISTPPSGTEKK,34300,4050,34300,190,12400,6880,797,297,179,127,154
TANGGSTSSTPP,232,305,416,175,340,211,200,188,123,131,129
PSGASSGEAEASSNK,303,1670,3700,580,1240,2040,236,843,110,2190,1780
STSSTPPGTDKKTAA,3750,3390,8630,16600,7200,13600,1340,206,321,2530,562
SGTENKPATGEAP,49900,42700,46300,514,867,45700,2050,1520,205,408,252
TANGGSTSSTP,511,265,905,545,323,384,228,178,135,163,218
TANGGSTSST,139,189,242,118,254,193,116,164,97.4,147,93.3
EAPSQPGASSG,11700,34400,1260,92.8,117,255,163,133,187,221,113
GSTSSTPPSGTENKP,52800,49900,50300,417,8750,34700,8180,892,950,598,717
ANGGSTSSTPP,2140,2090,1020,4140,2950,2440,281,478,189,428,322
QPGASSGEA,1040,146,8100,123,128,83.8,135,111,84,142,90.4

Sequence,antibody binding signal [1],antibody binding signal [2],antibody binding signal [3],antibody binding signal [4],antibody binding signal [5],antibody binding signal [6],antibody binding signal [7],antibody binding signal [8],antibody binding signal [9],antibody binding signal [10],antibody binding signal [11]
ANGGSTSSTP,1400,2110,1020,1260,1160,2210,230,369,159,350,328
ANGGSTSS,485,864,683,192,714,1830,307,386,122,285,286
SGEAEASS,65,72.6,124,88,169,60.9,57.4,93.3,73.8,75.8,60.6
TDKKTAAGEAPSPSG,441,297,685,473,438,6850,172,156,1020,148,163
PSQPGASSG,3280,214,736,171,895,264,159,183,177,1830,236
TSSTPPSGTEN,39200,40700,28200,112,166,246,325,154,92.9,119,156
NGGSTSSTPPS,183,277,296,213,186,161,258,229,127,145,144
SQPGASSGEAEASSN,245,139,6520,207,251,1730,132,143,123,140,80
APSQPGASSGEAE,2270,1010,9510,249,349,216,177,121,204,486,100
GTENKPATGEAPSQP,49700,52300,53400,1170,2760,45400,1130,1560,164,245,155
PATGEAPS,43200,51400,44500,144,174,28600,798,117,116,105,111
GTEKKAAAGEAPSPS,670,215,1580,709,939,11200,154,928,106,115,129
TGEAPSQPGAS,6840,37300,21200,179,577,2950,474,942,381,148,979
GEAPSQPGAS,4380,39100,9870,171,170,1560,437,1060,617,184,1270
SGEAEASSNKNDGSL,147,1130,2890,463,1360,1200,122,200,130,1550,785
ASSGEAEAS,137,113,255,385,237,73.9,223,145,87.5,82.7,231
LTACTTANGGSTSST,189,202,365,208,268,269,97.9,162,252,190,109
